Laboratory results published in ChEMBL document CHEMBL1201862, “PubChem BioAssay data set” (2004).
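Growth conditions: 96-well plates. Treatment: test compound, 48 hours, 5 concentrations. Analysis: linear interpolation between bracketing concentrations; unreached endpoints set to highest concentration. GI50: concentration for 50% inhibition of growth.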 Calls of active or inactive are those of the source. No stated cut-off is given here; in the data, active = GI50 up to about 1.1 µM and inactive = higher.

These molecules were tested on NCI-H322M (assay: NCI anticancer screen, dose series, 48 h).

SMILES	GI50
Cc1cc(Cl)ccc1NC(=O)CC1SC(NC(=O)c2ccccc2Cl)=NC1=O (stereo not given)	inactive: > 100 µM
OC(CCN1CCN(CCOC(c2ccc(F)cc2)c2ccc(F)cc2)CC1)c1ccccc1 (stereo not given)	inactive: 15.9 µM
CC(C)OC(=O)[C@@H](O)[C@H](CO)C1=CC([Si](C)(C)c2ccccc2)=CON1	inactive: > 100 µM
CC[C@@H]1CN2CCC1C[C@@H]2C(O)c1ccnc2ccc(OCCN3CCN(CCOc4ccc5nccc(C(O)[C@@H]6C[C@@H]7CCN6C[C@@H]7CC)c5c4)CC3)cc12 (stereo not given in full)	inactive: 14.1 µM
O=c1cc(-c2ccccc2)[nH]c2c(Cl)cccc12	inactive: 56.8 µM
Cc1cn(CCCCOC(=O)NC(CCCNC(N)=O)C(=O)O)c(=O)[nH]c1=O (stereo not given)	inactive: > 100 µM
ClC1=NN=C(c2c[nH]c3ccccc23)CC1NCc1ccccc1 (stereo not given)	inactive: > 100 µM
CC(C)[C@H]1NC(=O)[C@H]2N=C(O[C@@H]2C)[C@@H]2CCCN2C(=O)[C@H](Cc2ccccc2)NC(=O)[C@@H]2COC(=N2)[C@@H](Cc2ccccc2)NC(=O)[C@@H]2COC1=N2	inactive: > 100 µM
CCc1cccc(C)c1NC(=O)CCc1nnc(S)[nH]1	inactive: > 100 µM
Cc1ccc2[nH]c3[nH]c(=O)[nH]c(=O)c3c2c1	inactive: > 100 µM
N#CCC(=O)N1CCCCCCC1	inactive: > 100 µM
COC(=O)CCN1CCN(CCO)CC1C (stereo not given)	inactive: > 10 µM
O=C(O)c1nc(-c2ccccc2)ncc1-c1nnnn1-c1ccccc1	inactive: > 100 µM
COC(=O)C1CCCN1C(=O)OC(C)(C)C (stereo not given)	inactive: > 100 µM
CCOC(=O)C12CC(C)=C(C)CC1CCCc1ccccc12 (stereo not given)	inactive: 35.5 µM
CCC(CN(C)C)C(=O)c1ccco1 (stereo not given)	inactive: > 100 µM
CCOC(=O)Cc1c(Cc2[nH]c(C(=O)OCc3ccccc3)c(CC(=O)OCC)c2CC(=O)OCC)[nH]c(C(=O)OCc2ccccc2)c1CC(=O)OCC	inactive: > 100 µM
CN(C)/C=N/NC(=O)/C(C#N)=C/N(C)C	inactive: > 100 µM
C=C(COCO)C(C)=O	inactive: 43.6 µM
COc1ccc(N2C(=O)/C(=C/c3ccc(N(CCC#N)CCC#N)cc3)N=C2c2ccccc2)cc1	inactive: > 100 µM
CCOC(=O)c1c(N2CCCC2)ncn(Cc2ccccc2)c1=S	inactive: > 100 µM
CCOC(=O)C(=[N+]=[N-])C(=O)CN1C(=O)c2ccccc2C1=O	inactive: > 100 µM
COc1ccc2nc3n(c2c1)C(c1c(F)cccc1F)SC3 (stereo not given)	inactive: 57.1 µM

SMILES	GI50
COc1ccc(/C=c2/s/c(=C(\C#N)c3nc4ccccc4[nH]3)n(-c3ccccc3)c2=O)cc1	inactive: > 63.7 µM
C=C(C(=O)O)[C@@H]1C[C@@H](OC(C)=O)[C@]2(C)CC/C=C(\C)CCC[C@H](C)[C@H](O)[C@@H]1O2	inactive: > 100 µM
C[C@@H]1OC2(O)[C@H]3CCCN3S(=O)(=O)CCN2C1=O (stereo not given in full)	inactive: > 100 µM
C=C(N=[N+]=[N-])c1cn(C2CC(O)C(CO)O2)c(=O)[nH]c1=O (stereo not given)	inactive: > 100 µM
Cc1ccc(NC(=O)CCc2cc(C(C)(C)C)nc(S)n2)cc1C	inactive: > 100 µM
c1ccc(C2CC(N3CCOCC3)=Nc3ccccc3N2)cc1 (stereo not given)	inactive: > 100 µM
CC(NC(=O)C(N)Cc1ccc(O)cn1)C(=O)O (stereo not given)	inactive: > 100 µM
CC(=O)c1c(CO[N+](=O)[O-])[n+]([O-])c2ccccc2[n+]1[O-]	inactive: 47.2 µM
Cc1ccc2c(c1)C(=O)C(Cc1ccccc1C(=O)O)C2 (stereo not given)	inactive: > 100 µM
CC(C)=C[C@@H]1C[C@H](C)[C@H]2CC[C@H](C)[C@H]3C(=O)C(O)=C(C)C(=O)[C@]123	inactive: > 100 µM
N#Cc1nc(-c2cccc(-c3nc(C#N)c(N)o3)n2)oc1N	inactive: > 100 µM
O=C1[C@@H]2Cc3c([nH]c4ccccc34)C(C3CCCCC3)N2C(=O)[C@@H]2CCCN12 (stereo not given in full)	inactive: 58.9 µM
Cc1ccc(CC(Cc2ccccc2C)C(=O)O)c(C(=O)O)c1 (stereo not given)	inactive: > 100 µM
O=C(O)COc1cc(-c2ccccc2)nc2ccc(F)cc12	inactive: > 100 µM
O=C1[C@H]2ON(c3ccccc3)C(c3ccccc3F)[C@H]2C(=O)N1c1ccc(Cc2ccc(N3C(=O)[C@@H]4ON(c5ccccc5)C(c5ccccc5F)[C@@H]4C3=O)cc2)cc1 (stereo not given in full)	inactive: > 100 µM
COC(=O)c1cccc(C(=O)OC)c1	inactive: > 100 µM
COc1ccc2cc1Oc1ccc(cc1)CC1c3cc(c(OC)cc3CCN1C)Oc1c3c(cc4c1C(C2)N(C)CC4)OCO3 (stereo not given)	inactive: 14.1 µM
Cc1ccc(/N=N/c2c(O)ccc3cc(S(=O)(=O)O)ccc23)c(C)c1	inactive: > 100 µM
CN(C)CCNCc1c2ccccc2c(CNCCN(C)C)c2ccccc12	inactive: 21.1 µM
CC(=O)O[C@H]1C(=O)[C@@]2(C)[C@H]([C@H](OC(=O)c3cccc(C(F)(F)F)c3)[C@]3(O)C[C@H](OC(=O)[C@H](O)[C@@H](NC(=O)c4ccccc4)c4ccccc4)C(C)=C1C3(C)C)[C@]1(OC(C)=O)CO[C@@H]1C[C@@H]2O	active: 0.00617 µM
C[N+](C)(C)CC1CCC(C[N+](C)(C)C)C1=NO (stereo not given)	inactive: > 100 µM
O=C1/C(=C/c2ccc(Br)cc2)CCC/C1=C\c1ccc(Br)cc1	inactive: 19.6 µM
